Measurements published in publication PMC4336329 (PLoS ONE, 2015).
The whole screen tested about 310,000 compounds, of which about 14,000 (4.5%) showed an effect of 50% or more. Effects have a minus sign here. This is one part of the list.

molecular target: human ether-à-go-go-related gene (hERG) potassium channel (human, UniProt Q12809); test: primary screen, population patch clamp on CHO cells stably expressing hERG
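Further: peak tail current of the secondary pulse compared with the same well before compound.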

human ether-à-go-go-related gene (hERG) potassium channel, sequence (Q12809 whole entry, looked up): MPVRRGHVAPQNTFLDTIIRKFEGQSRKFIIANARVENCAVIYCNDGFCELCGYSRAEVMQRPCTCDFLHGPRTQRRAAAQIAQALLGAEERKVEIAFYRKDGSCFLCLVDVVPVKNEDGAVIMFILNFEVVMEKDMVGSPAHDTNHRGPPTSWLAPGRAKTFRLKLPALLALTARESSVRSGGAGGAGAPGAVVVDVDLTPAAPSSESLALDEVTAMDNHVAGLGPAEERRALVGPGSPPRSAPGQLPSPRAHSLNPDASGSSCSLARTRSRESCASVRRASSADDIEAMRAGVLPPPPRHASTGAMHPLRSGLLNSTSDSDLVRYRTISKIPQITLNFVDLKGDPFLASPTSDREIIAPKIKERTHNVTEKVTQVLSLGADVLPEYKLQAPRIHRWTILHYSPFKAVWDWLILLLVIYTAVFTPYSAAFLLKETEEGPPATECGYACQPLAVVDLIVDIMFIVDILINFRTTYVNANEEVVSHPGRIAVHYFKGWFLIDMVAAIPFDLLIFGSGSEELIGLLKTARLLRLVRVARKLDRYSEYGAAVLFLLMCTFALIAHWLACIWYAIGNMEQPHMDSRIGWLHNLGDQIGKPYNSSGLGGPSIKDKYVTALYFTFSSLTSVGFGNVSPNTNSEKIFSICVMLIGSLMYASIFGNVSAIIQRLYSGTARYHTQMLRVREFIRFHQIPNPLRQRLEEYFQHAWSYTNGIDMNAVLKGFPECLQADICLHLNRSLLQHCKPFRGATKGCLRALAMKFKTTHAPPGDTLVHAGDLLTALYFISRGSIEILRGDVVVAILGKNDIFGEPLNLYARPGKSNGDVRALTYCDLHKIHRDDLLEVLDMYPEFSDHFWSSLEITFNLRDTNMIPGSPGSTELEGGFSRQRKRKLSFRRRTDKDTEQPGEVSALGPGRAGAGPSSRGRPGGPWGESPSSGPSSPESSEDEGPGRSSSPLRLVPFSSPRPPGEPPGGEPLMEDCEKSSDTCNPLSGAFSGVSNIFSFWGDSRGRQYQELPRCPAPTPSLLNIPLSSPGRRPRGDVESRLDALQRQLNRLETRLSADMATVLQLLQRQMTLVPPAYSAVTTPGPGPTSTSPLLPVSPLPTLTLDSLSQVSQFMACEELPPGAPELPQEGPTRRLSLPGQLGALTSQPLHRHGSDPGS

Row | Compound | hERG current change (%, negative = inhibition) at 10uM [%]
1 | CC(C)CN(C(=O)COC(=O)c1ccccn1)c1c(N)n(Cc2ccccc2)c(=O)[nH]c1=O | -12.6
2 | Cc1nc(NS(=O)(=O)c2ccccc2)sc1C(=O)N/N=C/c1ccccc1 | -2
3 | CCN(CC)c1ccc(/C=N/NC(=O)c2cc3ccccc3[nH]2)cc1 | 2.97
4 | O=C(c1ccco1)N1CCC(c2nc(-c3ccccc3Cl)no2)CC1 | -11.5
5 | Cc1ccccc1N(C(=O)Cc1c[nH]c2ccccc12)C(C(=O)NC1CCCCC1)c1ccco1 (stereo not drawn) | 0.806
6 | OC(CNC1CCCCC1)CNC1CCCCC1 | 30.4
7 | O=[N+]([O-])c1ccccc1CSc1ccccn1 | 11.4
8 | Cc1ccc(N2CCN(c3ccc(NC(=O)CCC(=O)O)cc3)CC2)cc1 | 19.6
9 | CCOC(=O)C1(CC2CC2)CCN(S(=O)(=O)C[C@]23CC[C@H](CC2=O)C3(C)C)CC1 | -0.149
10 | CCOc1ccc(Oc2nc(C)cc(OC)n2)nn1 | -2.43
11 | CCN(CC)CCN(C(=O)c1ccc2ccccc2c1)c1nc2cc3c(cc2s1)OCO3.Cl | -38.6
12 | Cc1c(CCO)c(=O)[nH]n1S(=O)(=O)c1ccc(F)cc1 | 24.4
13 | COc1cc2c(cc1OC)-c1cc(NC3CCCCCC3)nc(=O)n1CC2 | -28.8
14 | O=C(Nc1ccc2c(c1)C(=O)NC2=O)c1ccc(S(=O)(=O)N2CCCC2)cc1 | 11.5
15 | Cc1cccc(C)c1NC(=O)CCCSc1nnnn1C | 10.8
16 | C=CCN1CCN(C(=O)c2ccc(-c3ccccc3)cc2)CC1 | -12.6
17 | C=CCSc1n[nH]c(-c2ccc(OCCC)cc2)n1 | -0.572
18 | CC1C(=O)CCC1(C(=O)O)c1ccccc1 (stereo not drawn) | 13.2
19 | Cn1c(N)c(C(=O)COC(=O)[C@H](Cc2ccccc2)N2C(=O)c3ccccc3C2=O)c(=O)n(C)c1=O | 5.45
20 | CCCOc1ccc(CN(CCC#N)C(=S)NC(=O)c2ccccc2)cc1 | 3.28
21 | Cc1ccccc1C(=O)Nc1ccnn1C1CCN(Cc2ccccn2)CC1 | -33.9
22 | O=C(NCc1ccncc1)c1cccc(NS(=O)(=O)c2ccc(F)c(F)c2)c1 | -20.9
23 | S=C(NCCN1CCOCC1)Nc1ccc(Cl)cc1 | 5.48

Row | Compound | hERG current change (%, negative = inhibition) at 10uM [%]
24 | Cc1cc(Cl)cc2sc(NC(=O)C3CC3)nc12 | -1.02
25 | CCOC(=O)c1ccc(N2C(=O)C(O)=C(C(C)=O)C2c2ccc([N+](=O)[O-])cc2)cc1 (stereo not drawn) | 22.2
26 | Cc1nc(-c2ccc(S(=O)(=O)N3CCN(Cc4ccccc4)CC3)s2)cs1 | 5.81
27 | CCN1C(C(=O)c2ccccc2)=C(Nc2ccccc2C)c2ccccc2S1(=O)=O | -4.84
28 | CC1(C)Cc2nc3sc4c(=O)n(CC(N)=O)cnc4c3cc2CO1 | 3.05
29 | O=C(COC(=O)C1CCN(c2ccc(C(F)(F)F)cn2)CC1)c1ccccc1Cl | 7.24
30 | CCOc1ccc(CNC(=O)CCC(=O)N2CCSc3ccccc32)cc1 | -18.2
31 | CC(NC(=O)CCc1nnc(C2(c3ccc(Cl)cc3)CCC2)o1)C1CC1 (stereo not drawn) | -3.59
32 | CSc1ccccc1NS(=O)(=O)c1ccccc1 | 2.62
33 | O=C(c1ccccc1)N1CCN(S(=O)(=O)c2ccc(Cl)c(C(F)(F)F)c2)CC1 | -1.61
34 | CC[n+]1c(/C=C/c2ccc(N(C)C)cc2)ccc2ccccc21.[I-] | -72.9
35 | Cc1c(NC(=O)c2cccc(-c3cc4ccccc4oc3=O)c2)cccc1-c1nc2ncccc2o1 | -39.9
36 | Cn1c(C(=O)c2ccccc2[N+](=O)[O-])nc2ccccc21 | -26.6
37 | O=C1C=CC(=O)N1c1ccc(O)cc1 | 3.01
38 | CCOC(=O)c1csc(N/N=C2\CCc3ccccc32)n1 | 9.37
39 | COc1ccc(NC(=O)N2CCC(O)(c3cccnc3)CC2)c(OC)c1 | 14.6
40 | O=C(Nc1ccncc1NC(=O)c1cccc([N+](=O)[O-])c1)c1cccc([N+](=O)[O-])c1 | -14.5
41 | COc1ccc(CN2C(=NC(=O)CCc3ccccc3)SC3CS(=O)(=O)CC32)cc1 (stereo not drawn) | 3.85
42 | O=C(Nc1ccccc1SCC1CSc2nc3ccccc3c(=O)n21)c1ccccc1Cl (stereo not drawn) | -70.5
43 | Cc1ccc(-c2ccc(=O)n(CC(=O)NCCN3C(C)CCCC3C)n2)cc1 (stereo not drawn) | 0.00388
44 | CC(C)NCCCCOc1ccccc1-c1ccccc1.O=C(O)C(=O)O | -32.9
45 | O=C(NCCN1CCOCC1)C1CC(=O)N(c2ccc(F)c(Cl)c2)C1 (stereo not drawn) | -3.45
